Data: PubChem BioAssay AID1466 (National Center for Advancing Translational Sciences (NCATS), 2008)
About 10 (0.005%) of roughly 200,000 compounds were called active. The inconclusive results got no clear call from the source; some entries with a clear call stand among them for comparison. The call rests on the fitted dose curve; in most records, active means well fitted inhibition curve with a large enough effect; inconclusive means small, poorly fitted or top-dose-only effect, or effect the other way, or another doubt; inactive means no such curve, though single readings can be large or run the other way. Potencies beside an inconclusive call are fits to weak or partial responses and may not hold up.

Target: Lysosomal alpha-glucosidase (Homo sapiens) (UniProt P10253)
Assay: qHTS Assay for Inhibitors of Human alpha-Glucosidase as a Potential Chaperone Treatment of Pompe Disease;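 on activity change, negative = inhibition: plate controls were uninhibited enzyme wells for no effect and no-enzyme background for full effect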
Settings: purified human GAA, 4-MU-alpha-glucoside fluorescence; activity change, negative = inhibition: at 76.9 µM (top of the series) unless noted
Method in brief: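 AC50 values come from Hill fits of compound titrations (up to 77 uM) against 4 nM human enzyme. Substrate 4-methylumbelliferyl-alpha-D-pyranoside at 400 uM, pH 5.0 citrate buffer, 20 min room temperature; fluorescence Ex 365/Em 440 after alkaline stop.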
Potency means the concentration at half of the fitted maximal effect; tags describe the fitted curve by direction and shape.

Compound | activity change, negative = inhibition | Potency
c1ccc(-c2nc3nonc3nc2-c2ccccc2)cc1 | inactive: -4.48% | –
Cc1ccc(C)n1-c1cccc(C(=O)O)c1 | – | inconclusive: 56.2 µM [inhibitor, single point]
O=C(N/N=C/c1ccc([N+](=O)[O-])o1)c1ccc(O)cc1 | – | inconclusive: 50.1 µM [inhibitor, partial curve]
O=C(Cn1ccc([N+](=O)[O-])n1)NCc1ccco1 | – | inconclusive: 56.2 µM [inhibitor, single point]
CC(=O)Nc1ccc(N=Cc2nc(-c3ccc(C)cc3)oc2O)cc1 | – | inconclusive: 17.8 µM [inhibitor, single point]
CCOC(=O)c1cccc(NC(=O)CSc2nc3ccccc3c(=O)n2CCOC)c1 | – | inconclusive: 3.98 µM [inhibitor, partial curve]
Nc1ccc(NC(=S)Nc2ccccc2)cc1 | inactive: -4.3% | –
CCOc1cc(NC(=S)NCCCN2CCOCC2)c(OCC)cc1NC(=O)c1ccccc1 | – | inconclusive: 5.62 µM [inhibitor, single point]
COc1ccccc1Oc1ccc(N/C=C2/CCCC2=O)cc1 | – | inconclusive: 4.47 µM [inhibitor, single point]
CCc1ccc(C2=NN(CCC(=O)NC(C)CCc3ccccc3)C(=O)CC2)cc1 (stereo not given) | – | inconclusive: 50.1 µM [inhibitor, single point]
CCC1(c2ccc(Cl)cc2)NC(=O)N(Cc2ccc(C(=O)OC)cc2)C1=O (stereo not given) | – | inconclusive: 39.8 µM [inhibitor, single point]
CC12COC3(C(=O)Nc4ccc(Cl)cn4)CC1CCC32C (stereo not given) | – | inconclusive: 35.5 µM [inhibitor, partial curve, poor fit]
Cc1nc2cc(F)ccc2n1C1CCN(C(=O)c2c(F)cccc2F)CC1 | – | inconclusive: 44.7 µM [activator, single point]
CC(C)CCNC(=O)C(c1ccco1)N(Cc1cccs1)C(=O)Cn1nnc2ccccc21 (stereo not given) | – | inconclusive: 31.6 µM [inhibitor, single point]
Cc1cc(N/N=C/c2ccc(Cl)cc2Cl)nc(NCc2ccccc2)n1 | – | inconclusive: 44.7 µM [inhibitor, single point]
CC(C)n1c(Oc2ccc(F)cc2)nc2c1c(=O)n(C)c(=O)n2C | inconclusive: 15.6% [activator] | –
O=C(NCc1cccnc1)/C(=C/c1ccc(-c2cccc(Cl)c2)o1)S(=O)(=O)c1ccccc1 | – | inconclusive: 8.91 µM [inhibitor, full curve, poor fit]
COc1ccc(NC(=O)c2ccccc2-c2ccc(C(F)(F)F)cc2)cc1S(=O)(=O)N1CCOCC1 | – | inconclusive: 56.2 µM [inhibitor, single point]
O=C(OC1CCOC1=O)c1cc(-c2ccccc2)nc2ccccc12 (stereo not given) | – | inconclusive: 4.47 µM [inhibitor, single point]
CC1CCN(c2c(NCc3ccc(C(=O)N4c5ccccc5CC4C)cc3)c(=O)c2=O)CC1 (stereo not given) | – | inconclusive: 8.91 µM [inhibitor, partial curve]

Compound | activity change, negative = inhibition | Potency
C=CCN(CC=C)Cc1c(C)[nH]c2ccc(C(=O)OCC)cc2c1=O | – | inconclusive: 4.47 µM [inhibitor, partial curve]
O=c1oc(-c2cccc(S(=O)(=O)N3CCOCC3)c2)nc2ccccc12 | – | inconclusive: 3.98 µM [inhibitor, full curve]
Cc1ccc(NC(=O)c2cc(C)n(-c3cccc(C)c3)c2C)cc1 | – | inconclusive: 56.2 µM [inhibitor, partial curve, poor fit]
Cn1nnc(NC(=O)COc2ccc(C3CCCCC3)cc2)n1 | – | inconclusive: 17.8 µM [inhibitor, partial curve, poor fit]
c1ccc(-n2ncc3c(N4CCCC4)ncnc32)cc1 | inconclusive: -7.56% [inhibitor] [at 15.4 µM] | –
CC(=O)Nc1ccc(/C(C)=N/Nc2nc(Nc3ccccc3)nc(N3CCOCC3)n2)cc1 | – | inconclusive: 1.78 µM [inhibitor, full curve]
O=C(Cn1cnc2cc([N+](=O)[O-])ccc2c1=O)Nc1cccc(S(=O)(=O)N2CCOCC2)c1 | – | inconclusive: 39.8 µM [inhibitor, single point]
Oc1ccc(/C=N/NC(=S)N/N=C/c2ccc(O)cc2)cc1 | inactive: 4.66% | –
CCOC(=O)c1sc2nc(NC(=O)COc3ccccc3)sc2c1C | – | inconclusive: 50.1 µM [activator, partial curve, poor fit]
COCC(=O)Nc1c(C(=O)Nc2ccc3c(c2)OCCO3)oc2ccccc12 | inactive: -5.71% | –
Nn1c(SCC(=O)N2CCN(S(=O)(=O)c3ccc(Cl)cc3)CC2)nnc1-c1cccs1 | – | inconclusive: 44.7 µM [inhibitor, single point]
COc1ccc(N(C)S(=O)(=O)c2cccc(C(=O)NCC3CCCCC3)c2)cc1 | inconclusive: -18.1% [inhibitor] | –
O=C1CC(c2c(F)cccc2Cl)C(n2cncn2)C(O)=C1C1NCCc2ccccc21 (stereo not given) | – | inconclusive: 5.62 µM [inhibitor, single point]
COc1ccc(-c2nc3ncccn3c2Br)cc1 | inconclusive: 37% [activator] | –
CC(=O)N(CCc1ccccc1C)Cc1cc2cc3c(cc2[nH]c1=O)OCO3 | – | inconclusive: 31.6 µM [activator, partial curve]
Cc1cc(C)cc(NC(=S)NCc2cccn2C)c1 | – | inconclusive: 50.1 µM [inhibitor, single point]
O=C(NC1CC1)c1cc2c(s1)-c1ccccc1OC2 | – | inconclusive: 35.5 µM [activator, partial curve]
O/N=C/c1cc(Br)cc(Br)c1OCc1ccccc1 | – | inconclusive: 0.794 µM [inhibitor, partial curve, poor fit]
O=C(O)c1cc(NCc2ccc(F)cc2)ccc1N1CCOCC1 | – | inconclusive: 2 µM [inhibitor, full curve, poor fit]
CC(=O)Nc1ccc(NS(=O)(=O)c2cc(C)sc2C)cc1 | – | inconclusive: 15.8 µM [inhibitor, partial curve]
